PubChem BioAssay AID2546 (National Center for Advancing Translational Sciences (NCATS), 2010)
“And” between values parts separate entries of the source, which are not always exact repeats. Identical values can stand only once. Screen size: about 310,000 compounds; about 11,000 (3.5%) were called active. Inconclusive results, whose numbers are uncertain, are shown with a selection of clear calls. Calls come from the whole dose curve; as a rule, active = well fitted inhibition curve with a large enough effect; inconclusive = small, poorly fitted or top-dose-only effect, or effect the other way; inactive = flat fitted curve, though single readings scatter. A potency beside an inconclusive call is a rough fit, not a confirmed value.

Test: VP16 counterscreen qHTS for inhibitors of ROR gamma transcriptional activity;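 note: Gal4-VP16 expression switched on by copper sulfate through the metallothionein promoter; nearly all actives have a fitted effect of over 50% in size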
Settings: Drosophila S2 Gal4-VP16 UAS-luciferase, luminescence, 20 h; series mostly up to 53.6 µM
Potency is the fitted concentration of half-maximal effect; tags give direction and shape of the fitted curve.

| Compound | Potency |
| --- | --- |
| COc1cc(C(=O)Nc2nc3ccccc3[nH]2)cc(OC)c1OC | active: 10 µM |
| CCCCNC(=S)Nc1cc(S(=O)(=O)N2CCCCC2)ccc1C | active: 10 µM |
| CCn1c2ccc(OC)cc2c2nc3ccccc3nc21 | inconclusive: 11.2 µM [inhibitor, partial curve] |
| O=C(CCSc1ccc(Cl)cc1)c1cccs1 | inconclusive: 22.4 µM [inhibitor, single point] |
| Cc1ccc(NC(=S)NCCc2ccc(F)cc2)c(C)c1 | active: 5.01 µM |
| Cc1ccccc1OCCn1cnc2cc([N+](=O)[O-])ccc2c1=O | inactive |
| Cc1cccc(NC(=O)CSc2ccc3nnc(-c4cccnc4)n3n2)c1 | inactive |
| O=C(Cn1cncn1)c1ccccc1Br | inactive |
| CC(=O)OC1CC2C(C)(C)C(O)CCC2(C)C2CC[C@]3(C)C(=CC(=O)OC3c3ccoc3)C12C (some centres undefined) | inactive |
| Cc1ccc(C2=N/C(=C\c3ccc(OS(=O)(=O)c4ccc(C)cc4)cc3)C(=O)O2)cc1 | inconclusive: 5.01 µM [activator, single point] |
| COc1ccc(OC)c(NC(=O)CSc2nnc(CNC(=O)c3cc(OC)c(OC)c(OC)c3)o2)c1 | inactive |
| Cc1ccc(-c2cc(NC(=O)CCl)n(-c3ccccc3)n2)cc1 | active: 5.01 µM |
| COc1ccccc1CC(NC(C)=O)C(=O)NC1CCN(S(=O)(=O)c2ccccc2)CC1 (centres undefined) | inactive |
| Cc1ccccc1Cc1c(C)nc2c(C(=O)NCc3ccco3)cnn2c1C | inactive |
| CCOC(=O)c1c(NC(=S)NC(=O)/C=C/c2cccs2)sc(C)c1C | inconclusive: 0.562 µM [inhibitor, full curve] |
| CCC(C)C(=O)Nn1c(C2CC2)nc2cc(OC)c(OC)cc2c1=O (centres undefined) | inactive |
| C=CCc1cccc(CNc2cnc3ccccc3c2)c1O | active: 7.08 µM |
| CCC(C)n1c(NC(=O)c2ccccc2)c(C#N)c2nc3ccccc3nc21 (centres undefined) | inconclusive: 25.1 µM [inhibitor, single point] |
| Cn1cc(C2=C(c3cn(CCCSC(=N)N)c4ccccc34)C(=O)NC2=O)c2ccccc21 | inconclusive: 28.2 µM [inhibitor, single point] and inconclusive: 20 µM [inhibitor, single point] |
| COc1cc(C2CC(c3cccnc3)=NN2c2ccc(F)cc2)cc(OC)c1OC (centres undefined) | inconclusive: 31.6 µM [activator, single point] |
| O=C(NC(=S)NC1CCCCCC1)c1cncc(Br)c1 | active: 6.31 µM |
| N#CCCN(Cc1cccnc1)C(=S)Nc1ccccc1Cl | inactive |
| CCC(=O)Oc1ccc(C(=O)Nc2ccc([N+](=O)[O-])cc2)cc1 | inactive |
| COc1ccc(C(=O)Oc2ccc(/C=N/O)cc2)cc1 | active: 11.2 µM |
| C=CCOc1ccccc1/C=N/NC(=O)Cc1ccc(C)cc1 | inconclusive: 35.5 µM [inhibitor, single point] |

| Compound | Potency |
| --- | --- |
| COc1cccc(C(=O)Oc2ccc3ccc(=O)oc3c2)c1 | inactive |
| COc1ccc2nc(NC(=O)C(NS(=O)(=O)c3cccc4nsnc34)C(C)C)sc2c1 (centres undefined) | active: 11.2 µM |
| O=Nc1c(-c2ccccc2)cc2ccccn12 | inconclusive: 5.62 µM [inhibitor, single point] |
| Cc1ccc(NC(=O)CSc2nnc(NC(=O)CN3CCOCC3)s2)cc1 | inconclusive: 35.5 µM [inhibitor, single point] |
| Cc1c(F)c(N2CCNC(C)C2)cc2c1c(=O)c(C(=O)O)cn2C1CC1 (centres undefined) | inactive |
| COc1ccc(C(C)=O)cc1CSc1nc2ccccc2o1 | inconclusive: 20 µM [inhibitor, single point] |
| O=C(Cc1ccc([N+](=O)[O-])cc1)N1N=C(c2ccncc2)CC1(O)C(F)(F)F (centres undefined) | inactive |
| NS(=O)(=O)c1ccc2nc(NC(=O)C3=COCCO3)sc2c1 | inconclusive: 20 µM [inhibitor, single point] |
| Cc1ccc(Cl)cc1N1CCN(Cc2cc(=O)n3ccsc3n2)CC1 | inactive |
| c1ccc(-c2csc3nnc(SCc4ccc5c(c4)OCCO5)n23)cc1 | inconclusive: 12.6 µM [activator, single point] |
| CCN1CCN(c2cc(C)c3cc(NC(=O)c4ccc5c(c4)OCO5)ccc3n2)CC1 | inconclusive: 25.1 µM [inhibitor, single point] |
| Cc1ccc(-c2cc(-c3n[nH]c(=S)o3)c3ccccc3n2)cc1 | active: 4.47 µM |
| COc1cc(C(=O)Nn2c(CC(C)C)nc3ccccc3c2=O)cc(OC)c1OC | inconclusive: 28.2 µM [activator, single point] |
| O=c1cc(C(F)(F)F)[nH]c2c(OC(F)(F)F)cccc12 | inconclusive: 35.5 µM [inhibitor, single point] |
| O=C(C[n+]1cc(-c2ccc(F)cc2)n2c1CCC2)Nc1nc(-c2ccccc2)cs1 | inactive |
| Cc1ccc(/C=N/NC(=O)c2ccccn2)s1 | active: 22.4 µM |
| COc1ccc(C/C(C)=N/NC(=O)C2COc3ccccc3O2)cc1 (centres undefined) | inconclusive: 31.6 µM [inhibitor, single point] |
| COc1ccccc1N1C(N)=NC(N)=NC12CCCCC2 | inactive |
| COc1ccc(-c2nn(-c3ccccc3)cc2/C=N/Nc2ccc(S(N)(=O)=O)cc2[N+](=O)[O-])cc1OC | inconclusive: 22.4 µM [inhibitor, single point] |
| O=S(=O)(c1cccs1)N1CCN(c2ccnc3cc(Cl)ccc23)CC1 | inconclusive: 15.8 µM [inhibitor, single point] |
| CN1CCN(c2ncc3nc(-c4cccs4)c(=O)n(Cc4cccs4)c3n2)CC1 | inconclusive: 35.5 µM [inhibitor, single point] |
| CN1CCN(C(=S)NC(=O)/C=C/c2cccc3ccccc23)CC1 | active: 3.16 µM |
| CC1CCN(c2ccc(C(=O)Nc3nnc(C4CC4)s3)cc2[N+](=O)[O-])CC1 | active: 17.8 µM |
| Cc1ccc(Cl)c2c1NC(=O)C2(O)CC(=O)c1ccc(Br)cc1 (centres undefined) | inconclusive: 35.5 µM [inhibitor, single point] |
| CCOc1ccc(/C=C/C(=O)Nc2cccc(C(C)=O)c2)cc1 | active: 4.47 µM |

| Compound | Potency |
| --- | --- |
| CC(=O)Nc1ccc(Nc2nc(C)c([N+](=O)[O-])c(Nc3ccccc3)n2)cc1 | active: 12.6 µM |
| COc1ccc(OCCSc2ncccn2)cc1 | inconclusive: 17.8 µM [inhibitor, single point] |
| C/C(=N\NC(=O)C1CCCC1)c1ccc(Cl)cc1 | inconclusive: 35.5 µM [inhibitor, single point] |
| COc1ccc(OC)c(-n2c(-c3ccccc3)n[nH]c2=S)c1 | inconclusive: 35.5 µM [inhibitor, single point] |
| C(=N\Nc1ccccn1)/c1c[nH]c2ccccc12 | inconclusive: 3.55 µM [activator, single point] |
| CSCc1cc(N2CCOCC2)nc(SCc2ccc(Cl)c(Cl)c2)n1 | inconclusive: 35.5 µM [inhibitor, single point] |
| CCCc1cc(C(=O)Nc2cccnc2)no1 | inconclusive: 35.5 µM [inhibitor, single point] |
| Cc1cc(N/N=C/c2ccccc2O)nc(N2CCOCC2)n1 | inactive |
| Cc1ccc(NC(=O)Nc2nnc(-c3ccncc3)s2)cc1C | inactive |
| CCOC(=O)c1c(C)[nH]c(C(=O)CSc2ccc(Cl)cc2)c1C | inconclusive: 35.5 µM [inhibitor, single point] |
| CC(=O)N1CCN(C2=NC(=O)C(=C3CCCCC3)S2)CC1 | inconclusive: 10 µM [activator, partial curve] |
| Cc1noc(C)c1-c1ccc2ncnc(N(C)Cc3ccco3)c2c1 | inconclusive: 14.1 µM [activator, partial curve] |
| COc1ccccc1N1CCN(C(c2ccc(Cl)cc2)c2nnnn2C(C)(C)C)CC1 (centres undefined) | active: 22.4 µM |
| Cc1cccc(NC(=S)NNC(=O)c2ccccc2Br)c1 | inconclusive: 35.5 µM [inhibitor, single point] |
| Cc1ccc(-n2nnnc2SCn2nnc3ccccc3c2=O)cc1 | inconclusive: 35.5 µM [inhibitor, single point] |
| COc1ccc(Cl)cc1NC(=O)C/C(C)=N/NC(=O)c1ccccc1[N+](=O)[O-] | inconclusive: 35.5 µM [inhibitor, single point] |
| Cc1cc(C)n(-c2nc3ccccc3c(=O)n2OCc2ccc(F)cc2)n1 | inconclusive: 11.2 µM [inhibitor, partial curve] |
| CC(C)(C)OC(=O)NCCCC[C@H](NC(=O)c1[nH]cnc1C(=O)N[C@@H](Cc1ccccc1)C(=O)OC(C)(C)C)C(=O)OC(C)(C)C | inconclusive: 35.5 µM [inhibitor, single point] |
| S=C1SCN(Cc2cccnc2)CN1Cc1cccnc1 | active: 5.62 µM |
| O=C(NCc1cccc(Cl)c1)c1ccc(S(=O)(=O)Nc2cccc(C(F)(F)F)c2)cc1 | inconclusive: 1 µM [inhibitor, single point] |
| Cc1ccc2nc(N(CCCN(C)C)C(=O)c3ccc4c(c3)CCCC4)sc2c1 | inconclusive: 10 µM [inhibitor, partial curve] |
| O=C(Nc1cccc(O)c1)c1noc2c1CCc1ccccc1-2 | active: 1.41 µM |
| Cc1[nH]nc(N=CC2=C(O)CC(C)(C)CC2=O)c1-c1ccc(Cl)cc1 | inconclusive: 35.5 µM [inhibitor, single point] |
| O=C(OCc1ccccc1F)c1ccc2c(c1)OCCO2 | inconclusive: 0.501 µM [activator, full curve, poor fit] |
